Test results from PubChem BioAssay AID624170 (National Center for Advancing Translational Sciences (NCATS), 2012).
Hit rate of the full screen: of about 410,000 compounds, about 850 (0.21%) were called active. The inconclusive results got no clear call from the source; some entries with a clear call stand among them for comparison. The call rests on the fitted dose curve; in most records, active means well fitted inhibition curve with a large enough effect; inconclusive means small, poorly fitted or top-dose-only effect, or another doubt; inactive means no such curve, though single readings can be large or run the other way. No potency is given beside an inconclusive call; the fits are too rough.

These compounds were tested against Glutaminase kidney isoform, mitochondrial (Homo sapiens) (UniProt O94925) (assay: qHTS for Inhibitors of Glutaminase (GLS)). Details: GLS enzymatic activity, qHTS titration; series mostly up to 45.5 µM; activity change, negative = inhibition: at the top concentration.
Sequence of UniProt O94925 (O94925 whole entry, looked up, canonical isoform): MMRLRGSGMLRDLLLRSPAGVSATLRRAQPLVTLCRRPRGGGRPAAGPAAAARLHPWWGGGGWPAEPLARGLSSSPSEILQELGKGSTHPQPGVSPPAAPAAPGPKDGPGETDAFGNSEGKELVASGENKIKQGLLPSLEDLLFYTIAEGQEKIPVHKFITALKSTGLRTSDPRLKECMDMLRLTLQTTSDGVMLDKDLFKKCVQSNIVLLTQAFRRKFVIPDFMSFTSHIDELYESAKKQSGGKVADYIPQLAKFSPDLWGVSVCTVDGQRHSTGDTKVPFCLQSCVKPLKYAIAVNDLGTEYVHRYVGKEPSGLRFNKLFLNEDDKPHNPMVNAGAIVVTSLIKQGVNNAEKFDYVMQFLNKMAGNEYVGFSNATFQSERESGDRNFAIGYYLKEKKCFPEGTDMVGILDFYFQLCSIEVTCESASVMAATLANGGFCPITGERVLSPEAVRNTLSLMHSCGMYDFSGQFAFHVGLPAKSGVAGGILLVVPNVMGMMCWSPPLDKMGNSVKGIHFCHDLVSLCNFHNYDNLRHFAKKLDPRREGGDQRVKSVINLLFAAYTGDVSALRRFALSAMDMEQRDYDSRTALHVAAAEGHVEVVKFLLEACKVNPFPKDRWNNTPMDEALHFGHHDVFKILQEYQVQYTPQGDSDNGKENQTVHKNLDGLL
Summary of the method: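 Coupled fluorescence readout: glutamate oxidase/HRP/Amplex Red detect glutamate formed by hKGA from L-glutamine (1 mM solution added). Buffer 45 mM KH2PO4 pH 8.2, 0.02% Tween-20; reads at t0 and 30 min RT.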
On the % scale 0 is the no-effect control and ±100 the full control effect; potency means the concentration at half of the fitted maximal effect; tags describe the fitted curve by direction and shape.

Question: How did the Potency turn out when `Cc1ccc(C)c(N2CCN(S(=O)(=O)c3ccc(-c4ccc(=O)[nH]n4)o3)CC2)c1` was run?
Answer: inconclusive [inhibitor, partial curve, poor fit]

Question: Which “activity change, negative = inhibition” value does the source give for `COc1ccc2c(c1)C(=NN)c1cc(OC)ccc1-2` here?
Answer: inactive: 22.1%

Question: With `Nc1ncnc2oc(-c3ccco3)c(-c3ccco3)c12` as the compound, how does the Potency read?
Answer: inconclusive [inhibitor, partial curve]

Question: Which “activity change, negative = inhibition” value does the source give for `CCC(C)(C)NC(=O)C(c1cccc(OC)c1)N(C(=O)CNC(=O)c1cccs1)c1cccnc1` (configuration not stated) here?
Answer: inactive: 6.39%

Question: With `COC1=C/C(=C/c2c(N)n3nc(CC(=O)N4CCCCC4)sc3nc2=O)C=CC1=O` as the compound, how does the Potency read?
Answer: inconclusive [inhibitor, single point]

Question: `CC(C)=CCc1c2c(c3occ(-c4ccc(O)cc4)c(=O)c3c1O)C=CC(C)(C)O2` was tested. Which “activity change, negative = inhibition” value did it give?
Answer: inactive: 0.956%

Question: For `O=C(c1cc([N+](=O)[O-])ccc1Cl)N1CCN(c2ccc([N+](=O)[O-])cc2)CC1`, which “activity change, negative = inhibition” value is on record?
Answer: inactive: 3.99%

Question: `Cc1cc(SCC(=O)c2ccc(O)c(O)c2)nc2ccccc12` was tested. Which Potency did it give?
Answer: inconclusive [inhibitor, single point]

Question: Which Potency does the source give for `Cc1cc(C(=O)Nc2ccc(C)c(C)c2)n(-c2ccccc2)n1` here?
Answer: inconclusive [inhibitor, single point]

Question: For `Cc1cccc(-c2nc3scc(CCNS(=O)(=O)c4ccc(Oc5ccccc5)cc4)n3n2)c1`, which Potency is on record?
Answer: inconclusive [inhibitor, single point]

Question: Which Potency does the source give for `CCCCC(CCC(=O)O)(C(=O)OCC)c1csc(Nc2ccccc2)n1` (configuration not stated) here?
Answer: inconclusive [inhibitor, partial curve]

Question: For `COc1cc(/C=C2\SC(=Nc3ccccc3)NC2=O)cc(Cl)c1O`, which “activity change, negative = inhibition” value is on record?
Answer: inactive: 7.06%

Question: For `CC(C(=O)O)n1c2ccccc2c2cn[nH]c(=O)c21` (configuration not stated), which Potency is on record?
Answer: inconclusive [inhibitor, partial curve]

Question: Which Potency does the source give for `CCOC(=O)c1ccc(NCCc2ccc(OC)c(OC)c2)c(N)c1` here?
Answer: inconclusive [inhibitor, partial curve]

Question: `CCOc1cc(C(=O)Nc2cc3c(cc2N2CCCC2)n(C)c(=O)n3C)cc(OCC)c1OCC` was tested. Which “activity change, negative = inhibition” value did it give?
Answer: inactive: -0.708%

Question: Which Potency does the source give for `COC(=O)c1cccc(NC(N)=S)c1` here?
Answer: inconclusive [inhibitor, single point]

Question: Which Potency does the source give for `CCOc1ccc(Nc2nc3ccccc3n2C)cc1` here?
Answer: inconclusive [inhibitor, full curve]

Question: For `Cn1c(=O)c2c(nc(N/N=C3\CCCc4ccccc43)n2Cc2ccc(F)cc2)n(C)c1=O`, which Potency is on record?
Answer: inconclusive [inhibitor, single point]

Question: Which Potency does the source give for `O=C(NNC(=O)c1sccc1-n1cccc1)c1ccccc1` here?
Answer: inconclusive [inhibitor, single point]

Question: With `Cc1ccc(Cl)cc1NC(=O)c1cc2c(=O)n3cccc(C)c3nc2n1C` as the compound, how does the “activity change, negative = inhibition” value read?
Answer: inactive: -1.25%

Question: Which Potency does the source give for `COc1cc(/C=N/n2c(-c3cc(C)[nH]n3)n[nH]c2=S)cc(OC)c1O` here?
Answer: inconclusive [inhibitor, single point]

Question: How did the Potency turn out when `Cc1cccc2c1NC(=O)C2=O` was run?
Answer: inconclusive [inhibitor, single point]

Question: Which Potency does the source give for `O=C(CN1CCN(Cc2cccc(F)c2)CC1)NCc1ccccc1` here?
Answer: inconclusive [inhibitor, single point]

Question: `COc1cc(/C=C/C(=O)O)cc(S(=O)(=O)NNC(=O)c2cc(C)oc2C)c1OC` was tested. Which Potency did it give?
Answer: inconclusive [inhibitor, single point]

Question: `O=C(Nc1ccc(Cl)c(Cl)c1)N1CC=C(c2ccccc2)CC1` was tested. Which Potency did it give?
Answer: inconclusive [inhibitor, single point]

Question: `CCOC(=O)Nc1cc2c(c(N)n1)N=C(c1ccccc1)CN2` was tested. Which Potency did it give?
Answer: inconclusive [inhibitor, single point]

Question: For `COc1cc2c(cc1OC)-c1cc(Nc3ccccc3C)nc(=O)n1CC2`, which Potency is on record?
Answer: inconclusive [inhibitor, single point]

Question: With `CS(=O)(=O)Nc1ccc(-c2n[nH]c(=S)n2-c2ccccc2)cc1` as the compound, how does the Potency read?
Answer: inconclusive [inhibitor, single point]

Question: For `Cc1cc(C)cc(-c2nnc(SCC(=O)Nc3cc(C)on3)o2)c1`, which “activity change, negative = inhibition” value is on record?
Answer: inactive: -1.98%

Question: For `COc1cccc(-c2ccnc3c(-c4ccccc4)c(C)nn23)c1`, which “activity change, negative = inhibition” value is on record?
Answer: inactive: 7.69%

Question: `CCC(C)NC(=O)C1c2ccccc2C(=O)N(c2ccc(OC)cc2)C1c1ccc(OC)cc1` (configuration not stated) was tested. Which Potency did it give?
Answer: inconclusive [inhibitor, single point]

Question: For `Cc1nc(NS(=O)(=O)c2ccccc2)sc1NC(=O)OC(C)C`, which Potency is on record?
Answer: inconclusive [inhibitor, single point]

Question: With `Oc1ccccc1C=NN1CCCCCC1` as the compound, how does the Potency read?
Answer: inconclusive [inhibitor, partial curve, poor fit]

Question: Which “activity change, negative = inhibition” value does the source give for `COc1cc(/C=C/c2nc3ccccc3s2)cc(OC)c1O` here?
Answer: inactive: -5.2%

Question: For `CC(/C=N/n1c(-c2n[nH]c3c2CCC3)n[nH]c1=S)=C\c1ccco1`, which Potency is on record?
Answer: inconclusive [inhibitor, single point]

Question: For `CCOc1ncccc1C(=O)NCCc1ccc(Cl)cc1`, which Potency is on record?
Answer: inconclusive [inhibitor, single point]

Question: `Cc1ccc(NC(=O)CSc2ccc(C(N)=O)cc2[N+](=O)[O-])cc1C` was tested. Which Potency did it give?
Answer: inconclusive [inhibitor, single point]

Question: For `Cc1ccc(NC(=O)C(c2ccccc2)c2ccccc2)c(O)c1`, which Potency is on record?
Answer: inconclusive [inhibitor, partial curve]

Question: For `O=C(NC(Cc1ccccc1)C(=O)O)/C(=C\c1ccco1)NC(=O)c1ccc(Br)cc1` (configuration not stated), which Potency is on record?
Answer: inconclusive [inhibitor, single point]

Question: Which Potency does the source give for `CC(Sc1nnnn1-c1ccccc1)C(=O)Nc1ccc(Cl)cn1` (configuration not stated) here?
Answer: inconclusive [inhibitor, partial curve, poor fit]

Question: Which Potency does the source give for `CC1CC(=O)Nc2ccccc2N1C(=O)CN1C(=O)C(=O)N(C)C1=O` (configuration not stated) here?
Answer: inconclusive [inhibitor, single point]

Question: With `O=C(c1cccs1)N1CCC(c2nc3c(nnn3Cc3c(Cl)cccc3Cl)c(=O)[nH]2)CC1` as the compound, how does the Potency read?
Answer: inconclusive [inhibitor, single point]

Question: `O=C(Nc1cccnc1)c1cccc(S(=O)(=O)Nc2ccccc2F)c1` was tested. Which Potency did it give?
Answer: inconclusive [inhibitor, partial curve]

Question: For `O=C1NC2(C=Cc3c(ccc4ccccc34)O2)Oc2ccccc21` (configuration not stated), which Potency is on record?
Answer: inconclusive [inhibitor, single point]

Question: With `O=C(O)c1cccc(Cn2c(Cl)c(/C=N/NC(=O)c3cccc(O)c3)sc2=O)c1` as the compound, how does the “activity change, negative = inhibition” value read?
Answer: inactive: 11.9%

Question: How did the “activity change, negative = inhibition” value turn out when `Clc1ccc(-c2nnc3sc(-c4ccc(Br)o4)nn23)cc1` was run?
Answer: inactive: 1.17%

Question: With `CCOc1ccccc1CNC(=O)c1nc(-c2ccc(Cl)cc2)n2c1CCCCC2` as the compound, how does the “activity change, negative = inhibition” value read?
Answer: inactive: 3.94%

Question: With `Cc1ccc(/C=C2\SC(=S)N(CC3CCCO3)C2=O)o1` (configuration not stated) as the compound, how does the Potency read?
Answer: inconclusive [inhibitor, single point]

Question: How did the Potency turn out when `CN(C)C(/C=C/Nc1ccccc1F)=C(C#N)C#N` was run?
Answer: inconclusive [inhibitor, single point]

Question: For `Cc1c(/C=C2\SC(=O)N(CC(=O)Nc3ccc4c(c3)OCO4)C2=O)c2ccccc2n1C`, which Potency is on record?
Answer: inconclusive [inhibitor, single point]

Question: `CCOc1cc(CO)cc(Br)c1OCC(=O)O` was tested. Which Potency did it give?
Answer: inconclusive [inhibitor, single point]

Question: Which Potency does the source give for `O=C(CCN1C(=O)/C(=C\c2ccccc2F)SC1=S)N1CCCCC1` here?
Answer: inconclusive [inhibitor, single point]

Question: How did the “activity change, negative = inhibition” value turn out when `COC(=O)CSc1nc2sc3c(c2c(=O)n1-c1ccc(C)cc1)CC(C(C)C)OC3` (configuration not stated) was run?
Answer: inactive: -10.6%

Question: Which Potency does the source give for `C/C(CC1CC2=C(CC1(C)C)C(C)(C)CCC2)=N\NC(N)=S` (configuration not stated) here?
Answer: inconclusive [inhibitor, single point]

Question: Which Potency does the source give for `COCCNC(=O)C(c1ccco1)N(C(=O)Cn1nnc2ccccc21)c1cc(C)ccc1C` (configuration not stated) here?
Answer: inconclusive [inhibitor, single point]

Question: Which Potency does the source give for `N#Cc1c(Nc2ccc(Cl)cc2)s[nH]c1=O` here?
Answer: inconclusive [inhibitor, single point]

Question: Which Potency does the source give for `CC(/C=N/Nc1nc(N2CCCCC2)nc(N2CCCCC2)n1)=C\c1ccccc1` here?
Answer: inconclusive [inhibitor, single point]

Question: `N#Cc1ccccc1NC(=O)CSc1nccn1CCc1ccccc1` was tested. Which Potency did it give?
Answer: inconclusive [inhibitor, single point]

Question: For `COc1cc(/C=N/N=C2/SCC(=O)N2c2ccc(O)cc2)ccc1O`, which Potency is on record?
Answer: inconclusive [inhibitor, single point]

Question: `O=c1[nH]c(CN2CCN(c3ccccc3O)CC2)nc2ccccc12` was tested. Which Potency did it give?
Answer: inconclusive [inhibitor, single point]

Question: For `CCCN(CC)[C@@H](CC)C(=O)Nc1c(C)cccc1C`, which “activity change, negative = inhibition” value is on record?
Answer: inactive: 3.2%

Question: For `Cc1[nH]c(=S)c(C#N)c(C)c1Cc1ccccc1`, which Potency is on record?
Answer: inconclusive [inhibitor, full curve]

Question: Which Potency does the source give for `Cc1c(N2C(=O)c3ccc4c5c(ccc(c35)C2=O)CC4)c(=O)n(-c2ccccc2)n1C` here?
Answer: inconclusive [inhibitor, partial curve]

Question: With `Oc1ccc(/C=N/Nc2ccc3ccccc3c2)c(O)c1` as the compound, how does the Potency read?
Answer: inconclusive [inhibitor, partial curve, poor fit]

Question: `O=C1c2ccccc2C(=O)C1c1ccnc2ccccc12` was tested. Which Potency did it give?
Answer: inconclusive [inhibitor, single point]

Question: With `CC(=O)Nc1ccc(Br)c(Cl)c1` as the compound, how does the Potency read?
Answer: inconclusive [inhibitor, single point]

Question: How did the Potency turn out when `CCOc1ccc(NC(=O)c2c(NCc3cccnc3)sc3c2CCC(C)C3)cc1` (configuration not stated) was run?
Answer: inconclusive [inhibitor, partial curve, poor fit]
